We go through 42 compounds from ChEMBL document CHEMBL4888484, “Replenishing the malaria drug discovery pipeline: Screening and hit evaluation of the MMV Hit Generation Library 1 (HGL1) against asexual blood stage Plasmodium falciparum ,using a nano luciferase reporter read-out” (2022).

The campaign covered roughly 150,000 compounds. About 540 (0.36%) showed an effect of 50% or more. The list shows a part of the results.

The test system of the assay is Plasmodium falciparum. The experiment in a line: Primary screen in NF54 nanoGlo assay, in single point, at 2uM, 72h; a lower Z score goes with more inhibition. The assay is classed as functional, Erythrocyte. To be noted: timepoint 72 hour.
For orientation: % Inhibition means the drop in the measured response relative to a control, in per cent. In the case of `CCCC[C@H](NS(=O)(=O)c1ccc(C(=O)N2CCOCC2)cc1)C1CCC1`, the “% Inhibition” value was -14% and the Z score is given as 2.6.
As to `O=C(COc1ccccc1F)Nc1cnccc1-n1cccn1`, the “% Inhibition” value was -16% and the Z score was 2.85.
In the same order, the values of `Cc1ccc(NCc2c[nH]cn2)c(Cl)c1C` are -4% and 0.4.
In the same order, the values of `COc1ccccc1C(=O)N1CCC[C@H](CN2CCCC2)CC1` are -1% and 0.2.
For `Cc1cc(C(=O)N2CCN[C@@H](C)C2)c2ccc(Br)cc2n1`, in that order: -6% and 0.85.
On to `Nc1nnc(CCn2cc(-c3cccc(Cl)c3Cl)nn2)s1`, for which the “% Inhibition” value is reported as 4% and the Z score is -0.57.
In the same order, the values of `C[C@@H](CN(C)C(=O)NCCc1cn2c(n1)CCCC2)c1nccs1` are -5% and 0.78.
With `O=C(NCCCn1ccnc1)c1cc(N[C@H]2C[C@@H]3CC[C@H]2C3)ccn1`, the “% Inhibition” value is 1% and the Z score was -0.11.
In the same order, the values of `Cc1ncccc1C(=O)N1C[C@H]2CCCC(=O)N(Cc3cccc(F)c3)[C@H]2C1` are 33% and -3.77.
In the same order, the values of `CC(C)N1CCN(c2ncc(Cl)s2)CC1=O` are -3% and 0.55.
For `O=C(C[C@@H]1C=CCC1)Nc1nc(-c2ccc(Cl)cc2)cs1`, in that order: 34% and -1.26.
For the compound `Cc1ccc2c(c1Br)CN(C(=O)NC[C@H]1CCCO1)C2`, the “% Inhibition” value is recorded as -13% and the Z score is given as 1.95.
In the same order, the values of `C=CCn1nc(C(=O)N2CCN(C)CC2)c2c1CC[C@H](NC1Cc3ccccc3C1)C2` are 3% and -0.54.
In the same order, the values of `COc1cc(Cl)c(C)cc1NS(=O)(=O)c1cc(-c2cnn3c(C)cc(C)nc23)ccc1OC` are -13% and 1.22.
As to `O=C(CCc1cn[nH]c1)NCC[C@H]1CCCCN1C1CCCC1`, the “% Inhibition” value is recorded as -7% and the Z score amounted to 1.22.
On to `CN(Cc1ccc[nH]1)C(=O)[C@@H](O)C1CCCCCCC1`, for which the “% Inhibition” value was found to be 7% and the Z score was -0.74.
For `CCn1ncc(-c2ccnc3cc(C(=O)Nc4cc(C)ccc4F)nn23)c1C`, in that order: -5% and 0.82.
With `Cc1ccc(NS(=O)(=O)c2cc(C(=O)NCc3ccccn3)ccc2Cl)cc1C`, the “% Inhibition” value turned out to be 0% and the Z score is recorded as 0.06.
Regarding `COC(=O)c1ccc(CO[C@@H](CN2CCN(C(=O)c3ccc(F)cc3F)CC2)c2cccc(OC)c2)cc1`, the “% Inhibition” value is recorded as -11% and the Z score is listed as 1.96.
In the same order, the values of `Cc1nc(-c2ccc(C(=O)NCC3(C)COC3)cc2)ccc1Cl` are -3% and 0.39.
In the same order, the values of `CCn1cnc2c(c1=O)CCN([C@H]1CCCN(c3ccccc3Cl)C1=O)C2` are -13% and 1.67.
In the same order, the values of `CC1COC(CO)CN1c1cc(C(F)(F)F)nc(-c2cccnc2)n1` (centres undefined) are 0% and -0.05.
For `C[C@@H](C(=O)N(C)Cc1nc2ccc(F)cc2[nH]1)N(c1ccccc1)S(C)(=O)=O`, the “% Inhibition” value is reported as -2% and the Z score worked out at 0.39.
In the case of `CCNC(=O)N[C@@H]1CCOC[C@@H]1Nc1ccncn1`, the “% Inhibition” value was -10% and the Z score was 1.23.
In the same order, the values of `O=C(OCc1ccccc1)[C@@H]1CCCN1C(=O)c1cnccn1` are -8% and 1.4.
In the same order, the values of `O=C1[C@@H]2Cc3c([nH]c4ccccc34)CN2C(=O)N1C1CCCCC1` are 32% and -3.57.
For `O=C(Nc1cccc2c1CCCC2)c1cccc(S(=O)(=O)N2CCCCC2)c1`, in that order: -16% and 1.73.
As for `CCC(C)(C)NC(=O)Nc1ccccc1`, the “% Inhibition” value is on record as -16% and the Z score is recorded as 3.29.
For the compound `O=C(c1cc(N2Cc3ccccc3C2)ccn1)N1CCOCC1`, the “% Inhibition” value is -11% and the Z score is listed as 2.12.
As for `CN1CCC[C@H](Nc2ncc(C(C)(C)C(=O)O)c(N3CCOCC3)n2)C1`, the “% Inhibition” value is reported as -1% and the Z score was 0.09.
In the same order, the values of `Cc1ccncc1Nc1nccn(C)c1=O` are -7% and 0.83.
For `COc1cnc([C@@H]2CCCN2C(=O)C2CCC(C)(C)CC2)[nH]c1=O`, in that order: -13% and 2.04.
For `O=S(=O)(CCC1CCCO1)NCC1CC12CCc1ccccc12` (centres undefined), in that order: 0% and -0.01.
Consider `O=C(NC1CC2CCC1O2)N1C2C=C(c3ccccc3)CC1CC2` (centres undefined), for which the “% Inhibition” value is -9% and the Z score was determined as 0.82.
Turning to `CCC(C)C(C)(O)CNC(=O)Cc1csc(-c2ccc(C)o2)n1` (centres undefined), the “% Inhibition” value is reported as -6% and the Z score was found to be 0.66.
Consider `COCCN1C[C@]2(CCCN(c3cc(NC4CC4)nc(N)n3)C2)CCC1=O`, for which the “% Inhibition” value was -5% and the Z score was found to be 0.86.
In the same order, the values of `NC(=NCc1cccc(COCC(F)(F)F)c1)N1CCOCC1` are 30% and -3.42.
In the same order, the values of `Cc1c(NC(=O)[C@H]2CCCO2)c(N2CCCC2)nn1C` are -14% and 2.62.
In the same order, the values of `O=S(=O)(c1ccc2nc(NCc3cccs3)cnc2c1)N1CCCCC1` are -13% and 1.44.
Consider `Cc1nc(N(Cc2ccccn2)C[C@@H]2CCC(=O)N2)c2ccsc2n1`, for which the “% Inhibition” value is -15% and the Z score is on record as 2.12.
For `Cc1ccc(Cl)cc1-n1nnc(C(=O)Nc2ccc3c(c2)OCCO3)c1C`, in that order: -18% and 1.96.
In the same order, the values of `CCOc1ccc2nc(NC(=O)Nc3cn(CC(C)C)c(=O)c4ccccc34)sc2c1` are 3% and -0.44.
